Inconclusive means that the source gave no clear call. Such entries were picked first, then a sample of the others. No potency is given beside an inconclusive call; the fits are too rough. Calls of active or inactive are those of the source. The call rests on the fitted dose curve; in most records, active means well fitted inhibition curve with a large enough effect; inconclusive means small, poorly fitted or top-dose-only effect, or effect the other way; inactive means flat fitted curve, though single readings scatter.
Assay: qHTS for Inhibitors of Plasmodium falciparum (GB4) proliferation (AID 504315); further: nearly all actives have a fitted effect of over 50% in size
Conditions: P. falciparum GB4 in erythrocytes, SYBR Green DNA, 72 h; series mostly up to 6.7 µM
In short: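 Erythrocytes infected with P. falciparum line (0.3% parasitemia, 2.5% hematocrit final) incubated with compounds 72 h at 37 °C, 5% CO2; SYBR Green lysis buffer added, fluorescence read next day. Normalized to 0.29 uM artemisinin and DMSO.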
For `COC(=O)C1=C(C(=O)OC)[C@@H]2N(Cc3ccccc3)c3ccccc3[C@@]23C[C@@H](C(=O)OC)N(C(=O)c2ccc(Br)cc2)C3=N1`, the Potency was inconclusive [inhibitor, full curve]. In the case of `COC(=O)CCC(=O)OC1(C)C(=O)C=C2C=C(C3CC3)N(CC3CC3)C=C2C1=O` (stereo not drawn), the Potency was inconclusive [inhibitor, single point]. In the case of `COC(=O)[C@@H]1CC[C@H](C)[C@@H](c2ccc(C)cc2)N1C(=O)c1ccc(C=NOC[C@@H](O)[C@H]2O[C@@H]3OC(C)(C)O[C@H]3[C@@H]2O)cc1`, the Potency was “inactive”. In the case of `COC(=O)C1=C(C(=O)OC)[C@@H]2Nc3ccccc3[C@@]23C[C@@H](C(=O)OC)N(C(=O)CC(C)C)C3=N1`, the Potency was inconclusive [inhibitor, partial curve]. In the case of `COC(=O)N1C2=C(c3ccccc3[C@@H]1CC(=O)Nc1ccc3cc4ccccc4cc3c1)[C@@H]1C(=O)N(c3ccccc3)C(=O)[C@@H]1[C@H](C)C2`, the Potency was active: 1510 nM. For `COC(=O)C1=C(C(=O)OC)[C@@H]2Nc3ccccc3[C@@]23C[C@@H](C(=O)OC)N(S(=O)(=O)c2ccc(C#N)cc2)C3=N1`, the Potency was inconclusive [inhibitor, partial curve]. With `COc1ccc(-c2nc3c(c4c2C[C@H](c2ccccc2)OC4)CN(C(=O)c2ccco2)CC3)c(C)c1` the Potency was inconclusive [inhibitor, partial curve]. In the case of `COc1ccc(-c2nc3c(c4c2C[C@H](c2ccccc2)OC4)CN(S(=O)(=O)c2c(C)noc2C)CC3)c(C)c1`, the Potency was inconclusive [inhibitor, single point].

Reference: PubChem BioAssay (NCATS)
Potency means the concentration at half of the fitted maximal effect; tags describe the fitted curve by direction and shape.
